Laboratory results as given in PMC4336329 (PLoS ONE, 2015).
Among all 310,000 compounds or so, about 14,000 (4.5%) showed an effect of 50% or more. Effects have a minus sign here. The list shows a part of the results.

These compounds were tested against human ether-à-go-go-related gene (hERG) potassium channel (human, UniProt Q12809) (assay: primary screen, population patch clamp on CHO cells stably expressing hERG).
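Further: peak tail current of the secondary pulse compared with the same well before compound.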

Sequence of human ether-à-go-go-related gene (hERG) potassium channel (Q12809 whole entry, looked up): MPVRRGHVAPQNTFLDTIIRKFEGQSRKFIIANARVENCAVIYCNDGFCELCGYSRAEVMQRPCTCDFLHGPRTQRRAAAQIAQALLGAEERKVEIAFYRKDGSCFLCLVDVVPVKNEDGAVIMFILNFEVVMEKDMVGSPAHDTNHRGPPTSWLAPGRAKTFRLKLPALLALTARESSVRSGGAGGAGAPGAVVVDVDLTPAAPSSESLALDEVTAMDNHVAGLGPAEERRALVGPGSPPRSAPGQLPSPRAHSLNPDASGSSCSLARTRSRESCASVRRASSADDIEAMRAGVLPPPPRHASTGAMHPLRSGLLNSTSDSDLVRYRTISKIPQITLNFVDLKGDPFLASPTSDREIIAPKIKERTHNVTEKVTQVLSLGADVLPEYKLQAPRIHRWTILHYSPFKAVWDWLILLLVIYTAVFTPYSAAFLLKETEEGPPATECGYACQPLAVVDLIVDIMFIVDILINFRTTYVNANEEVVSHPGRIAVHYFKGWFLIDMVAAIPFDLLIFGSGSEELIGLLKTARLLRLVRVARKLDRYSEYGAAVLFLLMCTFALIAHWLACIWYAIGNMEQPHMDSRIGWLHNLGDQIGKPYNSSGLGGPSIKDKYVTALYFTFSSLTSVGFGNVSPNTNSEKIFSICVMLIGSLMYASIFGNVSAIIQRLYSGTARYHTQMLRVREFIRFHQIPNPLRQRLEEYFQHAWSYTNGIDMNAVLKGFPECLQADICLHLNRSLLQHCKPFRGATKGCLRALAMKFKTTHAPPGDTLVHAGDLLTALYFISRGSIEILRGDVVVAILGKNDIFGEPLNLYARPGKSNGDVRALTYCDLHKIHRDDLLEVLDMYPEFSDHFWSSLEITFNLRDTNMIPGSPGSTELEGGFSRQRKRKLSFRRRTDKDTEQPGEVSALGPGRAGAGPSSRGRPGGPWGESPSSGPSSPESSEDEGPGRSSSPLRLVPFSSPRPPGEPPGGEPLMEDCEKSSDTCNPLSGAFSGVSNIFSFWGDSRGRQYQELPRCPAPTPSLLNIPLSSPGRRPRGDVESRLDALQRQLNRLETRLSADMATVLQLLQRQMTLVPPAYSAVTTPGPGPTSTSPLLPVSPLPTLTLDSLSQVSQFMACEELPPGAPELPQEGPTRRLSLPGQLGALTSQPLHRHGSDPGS

Compound	hERG current change (%, negative = inhibition) at 10uM [%]
O=C(CCCN1C(=O)/C(=C/c2cccs2)SC1=S)Nc1cccc(O)c1	19.8
O=C(NCc1ccco1)c1cnn2c(C(F)(F)F)cc(-c3cccs3)nc12	-4.04
CCN(CC)C(=O)CCCc1c[nH]c2ccccc12	20
COC(=O)CSc1nc(N)nc(C)c1Cl	-13.6
CO[C@@H]1O[C@@H]2COC(c3ccccc3)O[C@@H]2[C@@H](OC)[C@@H]1O (stereo partly drawn)	20.5
O=C1C=CN(Cc2ccccc2)CC1	0.863
O=C(O)C1=NOC(CNC(=O)c2ccccc2Cl)C1 (stereo not drawn)	27.2
Cc1ccc(CC(=O)Nc2cc(C)ccn2)cc1	11.2
CCc1ccc(NC(=O)c2ccnc(C(C)(C)C)c2)cc1	-4.42
Fc1ccc(Br)cc1/C=N/N1CCN(c2ccccc2)CC1	8.46
O=C(Cn1cnc2c(oc3ccccc32)c1=O)N1CCCc2ccccc21	-15.4
CCOc1ccccc1NC1=NC2CS(=O)(=O)CC2S1 (stereo not drawn)	21.1
Cc1noc(/C=C/c2ccco2)c1S(=O)(=O)N1CCC(C(=O)N2c3ccccc3CC2C)CC1 (stereo not drawn)	-8.16
Cc1cc(=O)oc2cc(OCC(=O)N/N=C/c3ccccc3[N+](=O)[O-])ccc12	-33
Cc1ccc(CNC(=O)CC(C)S(=O)(=O)c2ccc3c(c2)NC(=O)CO3)cc1 (stereo not drawn)	-22.1
CS(=O)(=O)N(CC(=O)NCCSCc1cccc(Cl)c1)c1ccccc1F	-20.2
COc1ccc(Cl)cc1-n1c(=S)sc2c(=O)n(-c3ccc(F)cc3)c(SCC(=O)O)nc21	-42.9
COc1ccc2nc(Nc3nc(CSc4nc5ccccc5s4)cc(=O)[nH]3)nc(C)c2c1	-10.4
O=C(CN1C(=O)COc2ccccc21)N1CCOCC1	7.41

Compound	hERG current change (%, negative = inhibition) at 10uM [%]
CN1/C(=C\C(=O)COC(=O)c2ccccc2O)C(C)(C)c2ccccc21	-3.1
COc1ccc(/C=N/Nc2nccnc2Cl)cc1	-12.6
CS(=O)(=O)Nc1cccc(C2=NN(C(=O)c3ccco3)C(c3ccco3)C2)c1 (stereo not drawn)	-2.88
CCOCc1nnc(NC(=O)c2cc(Cl)ccc2OC)s1	-17
O=C(NCCc1cccc(Cl)c1)c1cccnc1	-9.46
COc1ccccc1CNC(=O)COc1ccccc1OC	0.00358
Cc1nc2c(c(C)nn2-c2ccccc2)c(C)c1Cl	-9.16
Cc1oc2c(C)c(O)ccc2c(=O)c1-c1nncn1-c1ccccc1	15.3
Cc1ccc(C(NC(=O)NCCCN2CCOCC2)=C(Cl)Cl)cc1F	-11
O=C1Nc2ccccc2C12OCC1(CO2)COC2(OC1)C(=O)Nc1ccccc12 (stereo not drawn)	8.14
CC(C)(CO)Nc1nc(Cl)nc(NC2CCCCC2)n1	-17.6
Cc1cccc(-n2ncc3c2CCCC3NC(=O)CC(F)(F)F)c1C (stereo not drawn)	0.868
Cc1c(C(=O)C(=O)N2CCN(Cc3ccc4c(c3)OCO4)CC2)c2ccccc2n1C	-8.7
C=CCN1C(=O)CSc2ccc(C(=O)NCc3ccco3)cc21	-14.5
O=C(CSc1nnc2c(n1)[nH]c1ccccc12)NCc1ccco1	15.9
S=C(NCCc1ccncc1)Nc1ccccc1	18.6
CC(=O)Nc1ccc2c(c1)nc1n2CCOC1	5.37
CCc1nnc2c(N(C)C)nc3ccccc3n12	-13.9
O=C(COc1ccc(Nc2ccccc2)cc1)Nc1ccncc1	-30.1

Compound	hERG current change (%, negative = inhibition) at 10uM [%]
O=[N+]([O-])c1ccc(N2CCCCCC2)c([N+](=O)[O-])c1	3.24
O=C(Nc1ccc(Cl)c(Cl)c1)C1C2C=CC3(O2)C1C(=O)N(CCN1CCCCC1)C3C(=O)NC1CCCCC1 (stereo not drawn)	-60.8
CN1CCN(/C=N/c2c(C#N)cnn2C)CC1	9.06
CCC(Oc1cccc(Cl)c1)C(=O)N1CCCN(C)CC1 (stereo not drawn)	0.544
COc1cccc(-c2cc(C(=O)NCCCn3ccnc3)c3ccccc3n2)c1	-71.8
Cc1ccc(CNC(=O)CS(=O)(=O)c2cn(CC(=O)N3CCOCC3)c3ccccc23)cc1	3
COc1ccc(S(=O)(=O)Nc2ccc3c(c2)n(C)c(=O)n3C)cc1OC	12.1
CC(C(=O)Nc1ccc(F)c(F)c1F)N(C)CC(=O)Nc1ccccc1Br (stereo not drawn)	-20
COc1cc(C2SCC(=O)Nc3c2c(C)nn3-c2ccccc2)cc(OC)c1OC (stereo not drawn)	-2.14
Cc1cc(NS(=O)(=O)c2ccc(OCCNS(C)(=O)=O)cc2)no1	6.4
COc1ccc(OCC(=O)N/N=C(\C)c2cc3ccccc3o2)cc1	-34.5
Cn1c(CNC(=O)c2ccccc2F)nnc1SCC(=O)N1CCN(c2ccccc2)CC1	-8.2
Cc1ccc(N(C(=O)Cn2nnc(-c3cccs3)n2)C(C(=O)NC2CCCC2)c2ccncc2)cc1 (stereo not drawn)	7.48
Cc1ccc(C)c(N(C(=O)CS(=O)CC(=O)Nc2ccc3c(c2)OCO3)C(C)C(=O)NC2CCCC2)c1 (stereo not drawn)	-17.5
O=C(N/N=C/c1cccnc1)C1CCCN(S(=O)(=O)c2ccccc2)C1 (stereo not drawn)	-36.1
Cc1c(C(=O)O)sc2nc(/C=C/c3cccc(F)c3)[nH]c(=O)c12	14.2
CC1(C)CC(=O)c2cc(C(=O)N3CCN(CCO)CC3)c(=O)n(-c3ccc(Cl)cc3)c2C1	-0.258
Cc1cc(=O)n(C)c(=O)n1CCCNc1ccccc1.O=C(O)C(=O)O	-4.01
CC(C)Oc1ccc(C2CC(=O)N(c3cccc(Br)c3)C2=O)cc1 (stereo not drawn)	16.5
